One assay concerns HSkMC. As to the kind of experiment: cytotoxicity call (relative viability < 0.9). As to conditions: 10 µM.
A further assay has as its system HepG2. The assay is described as follows: cytotoxicity call (relative viability < 0.9). The settings on record: 10 µM.
A further assay relates to S. aureus RN4220. The assay is described as follows: growth inhibition call (relative growth <= 0.2). As to conditions: 50 µM.

The list shows a part of the results.

As to `CCOC(=O)C(=O)NCc1nnnn1-c1ccccc1`, the cytotoxicity call with HSkMC and in the assay with HepG2 was “inactive” throughout. For the same compound, the growth inhibition call with S. aureus RN4220 was “inactive”.
For the compound `C[C@@H]1CCCCO[C@H](CN(C)Cc2ccc3c(c2)OCO3)[C@H](C)CN([C@@H](C)CO)C(=O)c2cc(NC(=O)NC3CCCCC3)ccc2O1`, the cytotoxicity call in the assay with HSkMC is “inactive”. Moreover, in the assay with HepG2, the cytotoxicity call was “active”. Also, the growth inhibition call in the assay with S. aureus RN4220 is “inactive”.
For `C[C@@H]1CCCCO[C@H](CN(C)C(=O)NC2CCCCC2)[C@H](C)CN([C@H](C)CO)C(=O)c2cc(NC(=O)Nc3ccc(F)cc3)ccc2O1`, the cytotoxicity call in the assay with HSkMC is “inactive”. The cytotoxicity call in the assay on HepG2 was “active”. Besides, the growth inhibition call in the assay on S. aureus RN4220 is “inactive”.
With `Cc1ccc(S(=O)(=O)N(C)C[C@H]2OCCCC[C@H](C)Oc3ccc(NC(=O)Nc4c(C)noc4C)cc3C(=O)N([C@H](C)CO)C[C@@H]2C)cc1`, the cytotoxicity call in the assay with HSkMC and with HepG2 was “inactive” in each case. Besides, the growth inhibition call with S. aureus RN4220 was “inactive”.
On to `C[C@@H]1CN([C@@H](C)CO)C(=O)c2cc(NC(=O)Nc3ccc4c(c3)OCO4)ccc2O[C@@H](C)CCCCO[C@H]1CN(C)C(=O)C1CCCCC1`, for which the cytotoxicity call in the assay on HSkMC and with HepG2 was “inactive” in each case. Moreover, the growth inhibition call in the assay on S. aureus RN4220 was “inactive”.
As to `COc1ccc(NC(=O)N(C)C[C@@H]2OCCCC[C@H](C)Oc3ccc(NC(=O)Nc4cccc5ccccc45)cc3C(=O)N([C@@H](C)CO)C[C@H]2C)cc1`, the cytotoxicity call in the assay with HSkMC and in the assay with HepG2 was “inactive” each time. Moreover, the growth inhibition call with S. aureus RN4220 was “inactive”.
As for `C[C@H]1CN([C@@H](C)CO)C(=O)c2cc(-c3cccc(C#N)c3)cnc2O[C@H]1CN(C)C(=O)C1CCOCC1`, the cytotoxicity call in the assay with HSkMC and with HepG2 was “inactive” throughout. In addition, in the assay on S. aureus RN4220, the growth inhibition call was “inactive”.
Take `CNC(=N)NCCC[C@H](N)C(=O)O`: the cytotoxicity call in the assay on HSkMC and in the assay with HepG2 was “inactive” in each case. Moreover, the growth inhibition call with S. aureus RN4220 is “inactive”.
In the case of `Nc1ccc(S(N)(=O)=O)cc1`, the cytotoxicity call with HSkMC and in the assay on HepG2 was “inactive” throughout. In the assay with S. aureus RN4220, the growth inhibition call is “inactive”.
Consider `C[C@H](CO)N1C[C@H](C)[C@H](CN(C)S(=O)(=O)c2ccccc2)Oc2c(NS(=O)(=O)c3ccccc3)cccc2C1=O`, for which the cytotoxicity call in the assay on HSkMC and in the assay on HepG2 was “inactive” in each case. Further, the growth inhibition call in the assay with S. aureus RN4220 was “inactive”.
`C[C@@H]1CN([C@H](C)CO)C(=O)c2cccc(NC(=O)Nc3ccc4c(c3)OCO4)c2O[C@H]1CN(C)Cc1ccc(C(F)(F)F)cc1`: the cytotoxicity call with HSkMC is “inactive”. The cytotoxicity call in the assay on HepG2 is “active”. Moreover, in the assay on S. aureus RN4220, the growth inhibition call was “inactive”.
In the case of `CC(C)NC(=O)N(C)C[C@H]1Oc2ccc(NC(=O)NC3CCCCC3)cc2CC(=O)N([C@@H](C)CO)C[C@H]1C`, the cytotoxicity call in the assay with HSkMC and with HepG2 was “inactive” each time. Besides, the growth inhibition call in the assay with S. aureus RN4220 is “inactive”.
For `COc1ccccc1NC(=O)N(C)C[C@H]1Oc2cc(Br)ccc2S(=O)(=O)N([C@@H](C)CO)C[C@@H]1C`, the cytotoxicity call in the assay with HSkMC and in the assay with HepG2 was “inactive” each time. In addition, the growth inhibition call with S. aureus RN4220 is “inactive”.
For `Cn1cnc(S(=O)(=O)N2C[C@@H](O)COC[C@H]3O[C@H](CC(=O)NCc4cc(F)cc(F)c4)CC[C@@H]32)c1`, the cytotoxicity call in the assay on HSkMC and in the assay with HepG2 was “inactive” throughout. In addition, in the assay with S. aureus RN4220, the growth inhibition call was “inactive”.
For the compound `COc1c(C)c2c(c(O)c1CC=C(C)CCC(=O)O)C(=O)OC2`, the cytotoxicity call in the assay on HSkMC was “inactive”. Moreover, the cytotoxicity call in the assay on HepG2 was “active”. The growth inhibition call in the assay with S. aureus RN4220 was “inactive”.
Turning to `COc1ccc(S(=O)(=O)Nc2ccc3c(c2)CC(=O)N([C@@H](C)CO)C[C@@H](C)[C@@H](CN(C)S(=O)(=O)c2cn(C)cn2)O3)cc1`, the cytotoxicity call in the assay with HSkMC and in the assay on HepG2 was “inactive” each time. The growth inhibition call in the assay on S. aureus RN4220 is “inactive”.
Consider `C[C@@H]1CN([C@H](C)CO)C(=O)c2cccc(NS(=O)(=O)c3ccc(Cl)cc3)c2O[C@@H]1CN(C)S(C)(=O)=O`, for which the cytotoxicity call in the assay with HSkMC and with HepG2 was “inactive” in each case. Moreover, in the assay with S. aureus RN4220, the growth inhibition call was “inactive”.
For the compound `CC(=O)O[C@@H]1[C@@H](O[C@@H]2O[C@H](CO)[C@@H](O)[C@H](O)[C@H]2O)[C@@H](O)[C@H](OC[C@H]2O[C@@H](Oc3c(-c4ccc(O)c(O)c4)oc4cc(O)cc(O)c4c3=O)[C@H](O)[C@@H](O)[C@H]2O)O[C@H]1C`, in the assay on HSkMC, the cytotoxicity call is “inactive”. Moreover, the cytotoxicity call in the assay with HepG2 was “active”. Further, the growth inhibition call with S. aureus RN4220 is “inactive”.
Regarding `Cc1ccc(S(=O)(=O)Nc2ccc3c(c2)C(=O)N([C@H](C)CO)C[C@@H](C)[C@H](CN(C)Cc2ccc(Oc4ccccc4)cc2)O3)cc1`, the cytotoxicity call in the assay with HSkMC and in the assay on HepG2 was “active” throughout. Further, the growth inhibition call in the assay on S. aureus RN4220 is “inactive”.
In the case of `CN1C(=O)c2cc(NC(=O)c3cccs3)ccc2OC[C@H]2O[C@@H](CC(=O)NCCN3CCCCC3)CC[C@H]21`, the cytotoxicity call with HSkMC and in the assay on HepG2 was “inactive” in each case. Moreover, the growth inhibition call with S. aureus RN4220 was “inactive”.
Turning to `CCCNC(=O)N(C)C[C@H]1Oc2cc(C#Cc3ccccn3)ccc2S(=O)(=O)N([C@@H](C)CO)C[C@@H]1C`, the cytotoxicity call in the assay on HSkMC and with HepG2 was “inactive” throughout. For the same compound, the growth inhibition call in the assay on S. aureus RN4220 is “inactive”.
On to `C[C@H](CO)N1C[C@H](C)[C@H](CN(C)CC2CC2)Oc2ccc(NS(=O)(=O)c3cccs3)cc2CC1=O`, for which the cytotoxicity call with HSkMC and with HepG2 was “inactive” each time. For the same compound, the growth inhibition call in the assay with S. aureus RN4220 is “inactive”.
Turning to `COc1ccc(NC(=O)N(C)C[C@@H]2Oc3ccc(NC(=O)Cn4cnnn4)cc3C(=O)N([C@H](C)CO)C[C@H]2C)cc1`, the cytotoxicity call in the assay on HSkMC and with HepG2 was “inactive” in each case. Moreover, the growth inhibition call with S. aureus RN4220 is “inactive”.
As to `C[C@@H]1CN([C@H](C)CO)C(=O)c2cccc(NS(C)(=O)=O)c2O[C@H]1CN(C)S(=O)(=O)c1cccs1`, the cytotoxicity call in the assay on HSkMC and in the assay with HepG2 was “inactive” throughout. Also, the growth inhibition call with S. aureus RN4220 was “inactive”.
For the compound `COc1ccc(NC(=O)Nc2cccc3c2O[C@@H](CN(C)Cc2ccc(C(F)(F)F)cc2)[C@H](C)CN([C@@H](C)CO)C3=O)cc1`, the cytotoxicity call with HSkMC and in the assay with HepG2 was “inactive” throughout. The growth inhibition call in the assay with S. aureus RN4220 is “inactive”.
In the case of `Cc1cc(C(=O)Nc2cccc3c2O[C@H](CN(C)Cc2ccc(C(=O)O)cc2)[C@@H](C)CN([C@@H](C)CO)C3=O)n(C)n1`, the cytotoxicity call in the assay on HSkMC (human skeletal muscle cells) and in the assay on HepG2 was “inactive” throughout. Also, in the assay with S. aureus RN4220, the growth inhibition call is “inactive”.

For the origin of these results see the antibiotic and cytotoxicity screens of Wong et al. (2023).
